The results in this text go back to ChEMBL document CHEMBL4888484, “Replenishing the malaria drug discovery pipeline: Screening and hit evaluation of the MMV Hit Generation Library 1 (HGL1) against asexual blood stage Plasmodium falciparum ,using a nano luciferase reporter read-out” (2022).

Screen size: about 150,000 compounds; about 540 (0.36%) showed an effect of 50% or more. The list shows a part of the results.

This assay deals with Plasmodium falciparum. In words: Primary screen in NF54 nanoGlo assay, in single point, at 2uM, 72h; a lower Z score goes with more inhibition. The class given is functional, Erythrocyte. To be noted: timepoint 72 hour.
Turning to `Cc1csc(NC(=O)N2CCC[C@H]2C(=O)OC(C)(C)C)n1`, the % Inhibition (in general, the drop in the measured response relative to a control, in per cent) was determined as 5% and the Z score was -0.8.
In the case of `COc1ccc(C(=O)N[C@H]2CCCc3cn(C4CCCC4)nc32)nn1`, the “% Inhibition” value is reported as -10% and the Z score came out at 1.27.
Regarding `CCCn1ccnc1-c1c(-c2ccccc2)ncn1CC(=O)O`, the “% Inhibition” value is recorded as -12% and the Z score amounted to 1.15.
For `Nc1ccccc1-c1nnc(-c2ccc(-c3ccccc3)cc2)o1`, in that order: -8% and 0.97.
For the compound `Cc1ccc(Cl)c(S(=O)(=O)Nc2cnn([C@@H](C)C3CC3)c2)c1`, the “% Inhibition” value was -4% and the Z score is recorded as 0.63.
For the compound `Cc1ccc(CC(=O)N(C)Cc2ncon2)cc1Cl`, the “% Inhibition” value amounted to 6% and the Z score was -0.74.
Take `CC(=O)NC[C@@H]1CN(C(=O)COc2cc(F)cc(F)c2)C[C@H]1c1cncn1C`: the “% Inhibition” value is recorded as -10% and the Z score worked out at 1.49.
In the case of `CCn1cnc2c(c1=O)CCN(C(=O)c1cc(C)n(-c3ccc(F)cc3)n1)C2`, the “% Inhibition” value is recorded as -14% and the Z score is listed as 1.95.
With `CC(C)(C)c1ccc(CNc2nc3c(cnn3C(C)(C)C)c(=O)[nH]2)o1`, the “% Inhibition” value is listed as -6% and the Z score is on record as 1.04.
For `CN(Cc1nc2ccccc2c(=O)[nH]1)C(=O)c1cccnc1`, the “% Inhibition” value is given as -8% and the Z score is on record as 1.53.
For `Cc1cccc(C)c1OCCN(C)CC#N`, in that order: 3% and -0.42.
For the compound `Cc1oc2ncnc(OCC(=O)Nc3ccccc3F)c2c1C`, the “% Inhibition” value was -8% and the Z score turned out to be 1.1.
On to `CNC(=O)[C@@H]1C[C@@H](NCc2cc(F)ccc2F)CN1C1Cc2ccccc2C1`, for which the “% Inhibition” value amounted to 3% and the Z score is listed as -0.49.
Take `CCOC(=O)N1CCC(N2CCc3[nH]nc(CC)c3C2)CC1`: the “% Inhibition” value is -2% and the Z score was 0.29.
For `C[C@H](Oc1ccc(-c2ccccc2)cc1)C(=O)Nc1ccc(S(=O)(=O)N2CCN(C)CC2)cc1`, in that order: -1% and 0.15.
Take `CC[C@@H](Cn1ccnc1)NC(=O)c1c[nH]c2cc(C)nn2c1=O`: the “% Inhibition” value is -17% and the Z score is given as 1.63.
Take `CCCn1cnc(NC(=O)NC2CCN(Cc3ccccc3)CC2)n1`: the “% Inhibition” value is reported as 2% and the Z score is -0.39.
Turning to `CCc1onc(C)c1NC(=O)NCc1c(Cl)cccc1OC`, the “% Inhibition” value is reported as -52% and the Z score amounted to 6.05.
As for `O=C(Nc1ccc(-c2cc[nH]n2)cc1)c1ccccc1Cl`, the “% Inhibition” value is recorded as -10% and the Z score amounted to 1.62.
Taken in the same sequence, the figures for `CO[C@@H](CS(=O)(=O)Nc1c[nH]c(=O)c(C)c1)C(C)C` were -15% and 1.31.
In the case of `Cc1cc(C(=O)N2CCC([C@H]3[C@@H](Oc4ccccc4)CN3C(C)C)CC2)[nH]n1`, the “% Inhibition” value is on record as 8% and the Z score is given as -1.47.
For `Oc1ccc([C@@H](O)Cn2cc(CCc3ccccc3)nn2)cc1`, in that order: 6% and -1.06.
For the compound `CNc1cc(C(=O)N(C)[C@@H](C)c2nccs2)ccn1`, the “% Inhibition” value was -13% and the Z score turned out to be 1.84.
With `CC1CCCC1NC(=O)NCC(C)(O)C1CCCCC1` (centres undefined), the “% Inhibition” value was -1% and the Z score was determined as 0.18.
For `Cc1n[nH]c(C)c1NC(=O)CN1CCS(=O)(=O)C(C)C1C` (centres undefined), in that order: -10% and 1.05.
In the case of `CCC1CN(C(=O)C2(C#N)CCCC2)CC1N(C)C` (centres undefined), the “% Inhibition” value is reported as -3% and the Z score came out at 0.35.
Consider `CC(=O)Nc1c(-c2ccccn2)nsc1C(=O)NCc1cccs1`, for which the “% Inhibition” value is 0% and the Z score is listed as 0.08.
In the case of `c1ccc(NCc2cccc(COC3CCOCC3)c2)nc1`, the “% Inhibition” value was -5% and the Z score was 0.7.
As to `Cc1noc2ncnc(N[C@H](CO)Cc3c[nH]c4ccccc34)c12`, the “% Inhibition” value is -2% and the Z score is listed as 0.37.
For the compound `Cc1cnc([C@H](C)NC(=O)c2conc2C(C)(C)N)s1`, the “% Inhibition” value is recorded as 35% and the Z score is -0.82.
On to `COC[C@H]1C[C@@H](NS(=O)(=O)c2ccccc2)[C@H](O)[C@@H]1O`, for which the “% Inhibition” value is on record as -4% and the Z score is 0.62.
With `CC[C@H]1COCCN1C(=O)c1ccnc(NC)c1`, the “% Inhibition” value is given as -24% and the Z score stood at 3.61.
For the compound `Cc1ccc(C(=O)N2CCN(C)CC2)cc1-n1cnc2cccnc21`, the “% Inhibition” value is -5% and the Z score came out at 0.81.
For the compound `Cc1ccnc(NCCCN2C(=O)COc3ccccc32)n1`, the “% Inhibition” value is -7% and the Z score came out at 0.75.
For `COc1ccc([C@@H](C)C(=O)N2CCc3[nH]ncc3C2)cc1OC`, in that order: 10% and -1.04.
For `O=C(CCOc1ccc(F)c(Cl)c1)NCc1cccnc1`, in that order: 15% and -2.11.
For `CCOC(=O)N1CCN(C(=O)C[C@]2(c3ccccc3)CC(=O)N(CC3CCCCC3)C2=O)CC1`, the “% Inhibition” value was 17% and the Z score is -2.18.
`CCS(=O)(=O)Nc1c(C)cccc1F`: the “% Inhibition” value is listed as -2% and the Z score worked out at 0.33.
Consider `O=C(CCC(=O)N1CCN(c2ccc(Cl)c(Cl)c2)CC1)c1ccccc1`, for which the “% Inhibition” value is on record as 6% and the Z score was -0.94.
With `O=C(NCCc1ccc2c(c1)OCCO2)[C@H]1CCS(=O)(=O)C1`, the “% Inhibition” value is on record as -15% and the Z score amounted to 2.7.
For the compound `Cn1nc(C(C)(C)C)c2c1NC(=O)C[C@@H]2c1ncc[nH]1`, the “% Inhibition” value is given as 4% and the Z score was -0.53.
Regarding `Cc1cccc(OC2(C(=O)O)CCN(C/C=C/c3ccccc3)CC2)c1`, the “% Inhibition” value was -14% and the Z score is reported as 2.65.
